# Measured values taken from the RNAGym collection of RNA variant scans (doi:10.1101/gad.245936.114).
# Variants at the background level are over-represented here.
# B1: tRNA (parent)
# chain: CUCUCGGUAGCCAAGUUGGUUUAAGGCGCAAGACUUUAAUUUAUCACUACGAAAUCUUGAGAUCGGGCGUUCGACUCGCCCCCGGGAGAUUUUUUCCUCGAGCAA
# Variants of: B1
# Experiment: nonsense suppression (GFP-seq) (ratio to wild type); higher = more function; SUP4oc tRNA, yeast GFP reporter sort-seq
# Summary of the method: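 Raffinose/galactose medium with 80 mg/L adenine was used to grow yeast carrying genome-integrated tRNA variants (~3% random-mutation library), RFP, and a galactose-driven GFP ochre reporter. Cells went into GFP/RFP bins, which were Illumina-sequenced, and variants with ≥100 reads and ≥30 cells were scored. Nonsense suppression (GFPSEQ) is the per-bin median GFP/RFP weighted by estimated cell share and expressed relative to the unmutated parent tRNA.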
row,Variant,nonsense suppression
1,A23C G32C U57A C83A,≤ 0.026
2,U22G U55C G61A C72A,≤ 0.026
3,A23G A54U,0.0263
4,A24C G69U G78C,≤ 0.026
5,U22G G32C,≤ 0.026
6,A24G G67A,≤ 0.026
7,A24G G86C,≤ 0.026
8,A24C G28U C79A,≤ 0.026
9,A24C C29A,≤ 0.026
10,A24C G84A G85C,≤ 0.026
11,U22G C34G,≤ 0.026
12,A24C U71A G78C C80A A87G,≤ 0.026
13,A23G C29U A87G,≤ 0.026
14,A23C G28U,≤ 0.026
15,A23G A74U G86A,≤ 0.026
16,A23U U35G G61A U63C G73A,≤ 0.026
17,A23G A24G G28C A54C C75G,≤ 0.026
18,A23G G69A,≤ 0.026
19,A24C C81U,0.2
20,A23U A74C C82U G84A,≤ 0.026
21,A23C U55G,≤ 0.026
22,A24C U63C A87U,≤ 0.026
23,A23G C79A G85A,≤ 0.026
24,A23C U58G,≤ 0.026

row,Variant,nonsense suppression
1,A24C G84U,≤ 0.026
2,A24G A60G G84C,≤ 0.026
3,A23U A30U,0.0282
4,A23G C64A G66U G86A,≤ 0.026
5,A23G G61C G86U,≤ 0.026
6,U22G G32A G59U G88C,≤ 0.026
7,A23U U58G G85U,≤ 0.026
8,A24G C29U C34A G73A,≤ 0.026
9,A23C U35G,≤ 0.026
10,A24C C83U,0.383
11,A23C G61C,≤ 0.026
12,A24G A30U C81G,≤ 0.026
13,A24G C80G,≤ 0.026
14,A24C C27U U71G,≤ 0.026
15,A24G A31U A87U,≤ 0.026
16,A24G G88C,≤ 0.026
17,A23U U63A G84U,≤ 0.026
18,U22G U63C,0.868
19,A23U G28C A30U A33C U63C,≤ 0.026
20,A23G A30C G73A,≤ 0.026
21,A24C A60U,1.07
22,A24C A60G,0.258
23,A23C A33G,≤ 0.026
24,A23C A33U,≤ 0.026

row,Variant,nonsense suppression
1,A24C A62U G67U G73A,≤ 0.026
2,U22G C77G G78U,≤ 0.026
3,A24G U58A G84C,≤ 0.026
4,A24G U35G U71G G86U,≤ 0.026
5,A23G C56G,≤ 0.026
6,A24G U35C G67U,≤ 0.026
7,A24C C64G,≤ 0.026
8,U22G C64G,≤ 0.026
9,A23C C27G,≤ 0.026
10,A24G C77G,≤ 0.026
11,A23C C81U G85A,≤ 0.026
12,A23U C75A G84A,≤ 0.026
13,A24G C34A U70A,≤ 0.026
14,A24G U35G A87G,≤ 0.026
15,A23G C64A,≤ 0.026
16,A24G A31G,0.0322
17,U22G G73A,0.854
18,A23C A31U U55A U58G A62U C77G,≤ 0.026
19,A23U C29G A62C,≤ 0.026
20,A24C A30U C81A,≤ 0.026
21,A24G G59U,≤ 0.026
22,A23C C29A G67C,≤ 0.026
23,A24C C27A C79A,≤ 0.026
24,A24C G28A,0.952

row,Variant,nonsense suppression
1,U22G C68G,≤ 0.026
2,A24G G66A,≤ 0.026
3,A24G G61A,≤ 0.026
4,A23G A24C,0.156
5,A24G A60G C80U,≤ 0.026
6,A24G U71G,≤ 0.026
7,A24C G78U,0.0343
8,A24C G78A,0.112
9,A23G C34A G88A,≤ 0.026
10,A23G A24U C56A C80A,≤ 0.026
11,A24G G66C U76C G88A,≤ 0.026
12,A24G C56A,≤ 0.026
13,A24C U35A C81U,≤ 0.026
14,A23U U57C,≤ 0.026
15,A23U G26A U35G,≤ 0.026
16,A24C G25C A62U,≤ 0.026
17,A23C C29A G69C,≤ 0.026
18,A23G C68U G85U,≤ 0.026
19,A23G G61A A62C G66U A74C U76G,≤ 0.026
20,A24C C34G C56U,≤ 0.026
21,U22G C77G,≤ 0.026
22,A24G A74G G86A,≤ 0.026
23,A23G A24C C34U C72A A89U,≤ 0.026
24,A23G A24C C34U C72A A89G,≤ 0.026

row,Variant,nonsense suppression
1,A23C G69C,≤ 0.026
2,A24C G26C G61A,≤ 0.026
3,A24C A31U G61C G78C,≤ 0.026
4,A24C G28C U55C U70C U71C C75U,≤ 0.026
5,A24C G28C U55C U70C U71C C75G,≤ 0.026
6,A23G U57C G61A C72U,≤ 0.026
7,U22G U57G G69U,≤ 0.026
8,A23U G32C,≤ 0.026
9,A23G C56A C64G A74C,≤ 0.026
10,A23C C82G,≤ 0.026
11,A23C C82U,≤ 0.026
12,U22G C82U,0.913
13,A23C G32A A74G,≤ 0.026
14,A23G U35A C81G,≤ 0.026
15,A24C A74C,0.0915
16,A23U G65U,≤ 0.026
17,A23U G28A,≤ 0.026
18,A23G A31U,≤ 0.026
19,A24C A30C G66U,≤ 0.026
20,A24G C34A,≤ 0.026
21,A24G A60U C77G G85C,≤ 0.026
22,U22G G59U A74G,≤ 0.026
23,A23U A62G G73U,≤ 0.026
24,A23G U76A C77A,≤ 0.026

row,Variant,nonsense suppression
1,A24C G32U A33C U35G G86A,≤ 0.026
2,A23G A62U C68A,≤ 0.026
3,A23G C29U C79A,≤ 0.026
4,A24G G26U G32C G73A,≤ 0.026
5,A24G C64U,≤ 0.026
6,A23G A74U G88C,≤ 0.026
7,A24G A30U,≤ 0.026
8,U22G G59A G84U,≤ 0.026
9,A24G G84U,≤ 0.026
10,A24G G65A,≤ 0.026
11,A23C U70G A89C,≤ 0.026
12,A24G C29A G86C,≤ 0.026
13,A24C A89C,0.0925
14,A24C A60C U70C U76C,≤ 0.026
15,A24C C27A A74U G86A,≤ 0.026
16,A23U G26U G32C A54U C72A,≤ 0.026
17,A23G C29U A31C C72A,≤ 0.026
18,A23C G73U,≤ 0.026
19,A23C G73A,≤ 0.026
20,A23C U55A A60G G69U,≤ 0.026
21,A24G U63G C80A G85C,≤ 0.026
22,A23C A30U C34G U70C C72G,≤ 0.026
23,A23C A31C U55C,≤ 0.026
24,A24C C34G G86U,≤ 0.026

row,Variant,nonsense suppression
1,A24C A30U,0.11
2,A23C A30C G59A U76G C81U G88U,≤ 0.026
3,A24G G59A G86U,≤ 0.026
4,A23C G59U G61A,≤ 0.026
5,A23U G69A,≤ 0.026
6,A23U G26C,≤ 0.026
7,A24G U58A,≤ 0.026
8,A23U G32C G61A,≤ 0.026
9,A24G A74G,≤ 0.026
10,A24G A74C,≤ 0.026
11,A24C G26C,≤ 0.026
12,A23C U71A G78A,≤ 0.026
13,A24G G26A U63C C64G,≤ 0.026
14,A23U C56G U70C,≤ 0.026
15,A23G U35C,≤ 0.026
16,A23G U57C,≤ 0.026
17,A23G U57G,≤ 0.026
18,A24G G73C C82A G85C,≤ 0.026
19,A24G A74G C77G A89U,≤ 0.026
20,A24C A54G,0.0609
21,A23G C29A G61A,≤ 0.026
22,A23C U58G C64G,≤ 0.026
23,A23U A54G A74G,≤ 0.026
